According to the supplement of paper PMC12217912:
The other results are listed elsewhere or left out. Sequences were assembled here from the parent chain. Inactive controls read about 0.05.

B1: TEV protease; numbered along this chain (parent)
chain: MGESLFKGPRDYNPISSSICHLTNESDGHTTSLYGIGFGPFIITNKHLFRRNNGTLVVQSLHGVFKVKDTTTLQQHLVDGRDMIIIRMPKDFPPFPQKLKFREPQREERICLVTTNFQTKSMSSMVSDTSCTFPSGDGIFWKHWIQTKDGQCGSPLVSTRDGFIVGIHSASNFTNTNNYFTSVPKNFMELLTNQEAQQWVSGWRLNADSVLWGGHKVFMVKPEEPFQPVKEATQL

Variants of: B1
Test: raw area under fraction-flipped curve 0-4 h after induction (AUC4h, not background-subtracted), DNA-recorder readout of cleavage of the substrate (dimensionless); higher = more cleavage of the substrate by the protease variant
Settings: temperature: 34 °C; time window: 0-4 h after rhamnose induction
Method: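 In vivo DNA recorder in E. coli TOP10(DE3) ΔrhaA at 34 °C. Each TEVp single-site mutant (parent TEVp 0) is paired with a single-site variant of the 7-mer TEVs (canonical ENLYFQ|S). The substrate sits between flexible linkers in a Bxb1-sfGFP-TEVs-SsrA fusion, so cleavage stabilises Bxb1 and speeds flipping of a recombination array, read by NGS. The value is the raw area under the fraction-flipped curve over 0-4 h after rhamnose induction (AUC4h), with ≥20 reads per time point. It is not background-subtracted; inactive controls average about 0.047.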
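Further: Bxb1 expression induced with 0.2% (w/v) L-rhamnose at OD600 near 0.5, cultures sampled hourly, flipped fraction per protease–substrate barcode pair counted by paired-end Illumina sequencing.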

Row | Variant | area with substrate CNLYFQS | area with substrate DNLYFQS | area with substrate HNLYFQS | area with substrate INLYFQS | area with substrate LNLYFQS | area with substrate TNLYFQS | area with substrate WNLYFQS | area with substrate YNLYFQS | area with substrate FNLYFQS | area with substrate KNLYFQS | area with substrate PNLYFQS | area with substrate RNLYFQS | area with substrate GNLYFQS | area with substrate MNLYFQS | area with substrate NNLYFQS | area with substrate SNLYFQS | area with substrate VNLYFQS | area with substrate QNLYFQS
1 | N116S | 0.0639 | 0.0914 | 0.0709 | 0.0578 | 0.076 | 0.0776 | 0.0725 | 0.0655 | – | – | – | – | – | – | – | – | – | –
2 | T114Y | 0.0686 | 0.0646 | 0.0328 | – | 0.0778 | 0.0752 | 0.0718 | 0.075 | 0.0684 | 0.0694 | 0.102 | 0.0526 | – | – | – | – | – | –
3 | P134D | 0.0585 | 0.073 | 0.0477 | 0.0606 | 0.0647 | 0.0611 | 0.0628 | 0.0611 | 0.0642 | 0.0655 | 0.052 | – | 0.0631 | 0.0572 | 0.0605 | 0.0625 | 0.0641 | –
4 | P134G | 0.0555 | 0.0656 | 0.0521 | – | 0.0611 | 0.055 | 0.0569 | 0.0565 | – | 0.06 | 0.0638 | – | 0.052 | 0.0445 | 0.075 | 0.0472 | 0.0512 | –
5 | S130Y | 0.0682 | 0.0876 | 0.061 | 0.054 | 0.0612 | 0.075 | 0.0593 | – | – | 0.0819 | 0.0606 | 0.0479 | 0.104 | 0.0832 | – | – | 0.0421 | 0.0509
6 | V113G | 0.0763 | 0.0717 | 0.0559 | 0.0613 | 0.0586 | – | – | – | 0.0589 | 0.0456 | 0.0607 | – | – | 0.059 | – | – | 0.0671 | –
7 | F140G | 0.0721 | 0.0555 | 0.0585 | 0.0541 | 0.0595 | 0.0749 | 0.0428 | 0.0604 | 0.0664 | 0.0588 | 0.0736 | – | – | – | – | 0.121 | – | 0.0428
8 | S135R | 0.0562 | 0.0562 | 0.0658 | 0.0692 | 0.0615 | 0.0642 | 0.0604 | 0.0643 | 0.0524 | 0.0613 | 0.0532 | – | 0.0468 | – | 0.0588 | 0.0755 | 0.0615 | –
9 | F133W | 0.0603 | 0.0919 | 0.0648 | 0.0619 | 0.0703 | 0.0645 | 0.0605 | 0.0601 | 0.0702 | 0.0615 | 0.0739 | – | 0.093 | – | 0.0695 | – | 0.0384 | 0.0615
10 | F133K | 0.0783 | 0.0881 | 0.0619 | – | 0.0675 | – | – | 0.0436 | – | – | – | – | 0.0864 | 0.0587 | 0.0687 | – | – | –
11 | P104G | 0.0496 | 0.0508 | 0.0433 | 0.0412 | 0.0518 | 0.0489 | 0.0468 | 0.0481 | 0.0527 | – | 0.0658 | – | 0.0533 | 0.058 | – | 0.0539 | 0.0453 | 0.0479
12 | T132A | 0.0629 | 0.06 | 0.0557 | 0.0691 | 0.0608 | 0.0596 | 0.0578 | 0.0698 | – | 0.0786 | – | – | – | 0.0657 | 0.0631 | 0.0531 | 0.0476 | 0.0524
13 | T132I | 0.0682 | 0.0851 | 0.0742 | 0.0802 | 0.046 | 0.0737 | – | 0.0622 | 0.055 | 0.0597 | 0.066 | – | 0.065 | 0.059 | – | – | – | –
14 | R102H | 0.0617 | 0.0541 | 0.0577 | 0.0434 | 0.0556 | 0.0476 | 0.0307 | 0.0752 | 0.0684 | – | – | – | – | 0.0472 | 0.0518 | 0.0442 | 0.07 | 0.0605
15 | E107Y | 0.064 | 0.078 | 0.0652 | – | 0.0608 | 0.0481 | 0.0596 | 0.029 | 0.0642 | – | 0.0645 | – | – | 0.0613 | – | 0.0717 | 0.0441 | –
16 | I110D | 0.0526 | 0.0533 | 0.0457 | 0.0575 | 0.0551 | 0.0459 | 0.0551 | 0.0508 | – | 0.0459 | 0.0545 | 0.0589 | 0.0522 | – | – | 0.0636 | 0.0587 | –
17 | I110T | 0.0522 | 0.0872 | 0.0538 | 0.0687 | 0.066 | 0.0556 | 0.0518 | 0.0573 | – | 0.0632 | 0.0638 | – | 0.0725 | 0.0567 | – | 0.076 | 0.0609 | 0.0983
18 | I110G | 0.0565 | 0.0334 | 0.0574 | – | 0.0534 | 0.0568 | 0.0409 | 0.0475 | – | – | 0.0723 | – | – | – | 0.054 | 0.0387 | – | 0.0408
19 | Q105R | 0.0793 | 0.0768 | 0.0746 | 0.0729 | 0.0561 | – | 0.0603 | 0.0623 | 0.0662 | 0.0515 | 0.071 | – | 0.0719 | – | – | 0.0713 | 0.0704 | –
20 | Q105D | 0.0647 | 0.0852 | 0.0711 | – | 0.0522 | 0.0723 | 0.0736 | 0.053 | 0.0646 | 0.0748 | 0.0805 | – | 0.0568 | 0.073 | 0.0773 | 0.0996 | 0.0686 | –
21 | S123D | 0.0598 | 0.0668 | 0.0562 | 0.074 | 0.0481 | 0.0583 | 0.0553 | 0.0559 | 0.0577 | 0.0635 | 0.0788 | 0.0612 | 0.0729 | 0.0699 | 0.0862 | 0.0681 | 0.072 | –
22 | S123I | 0.0619 | 0.0837 | 0.0716 | 0.0658 | – | 0.0601 | 0.0675 | 0.0586 | 0.0701 | 0.0554 | – | – | 0.0712 | – | 0.0726 | – | – | –
23 | S121W | 0.0449 | 0.0831 | 0.0634 | 0.0517 | 0.078 | 0.0766 | 0.0605 | 0.0654 | 0.0641 | 0.0795 | 0.0567 | – | 0.0944 | 0.0476 | – | 0.0622 | 0.066 | –
24 | S121M | 0.0519 | 0.0579 | 0.0617 | – | – | 0.0682 | 0.0573 | 0.0545 | 0.0539 | – | – | – | 0.0664 | 0.0732 | 0.0295 | 0.0517 | – | –
25 | S121H | 0.0696 | 0.0847 | 0.069 | 0.0647 | 0.0604 | 0.0524 | 0.0453 | – | – | 0.0739 | 0.0668 | – | 0.0482 | 0.0784 | – | 0.0668 | 0.0564 | –
26 | P89S | 0.0526 | 0.0773 | 0.0567 | – | – | 0.0649 | 0.0582 | 0.052 | 0.0544 | 0.0673 | – | – | 0.0562 | 0.0582 | 0.066 | – | – | 0.0699
